From PubChem BioAssay AID624418 (National Center for Advancing Translational Sciences (NCATS), 2012)
Out of some 410,000 compounds screened, about 530 (0.13%) were called active. The shares of active, inactive and inconclusive entries below differ from those in the screen. Calls follow the shape of the dose curve; as a rule, active = well fitted inhibition curve with a large enough effect; inconclusive = small, poorly fitted or top-dose-only effect, or another doubt; inactive = no such curve, though single readings can be large or run the other way. Potencies beside an inconclusive call are fits to weak or partial responses and may not hold up.

Assay: qHTS of GLP-1 Receptor Inverse Agonists: Cytotox Screen
Settings: HEK293 cAMP-luciferase reporter cells, luminescence, 24 h; series mostly up to 38.3 µM
Summary of the method: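 Luminescence readout: signal drop marks cytotoxicity. Plated cells grew 12 h at 37 °C, 5% CO2, received 23 nL compound for 24 h, then got luciferase reagent, read after 12 min at RT.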
Potency is read from the fitted curve at half-maximal effect.

SMILES | Potency
CCc1ccc(NC(=S)/N=C(\N)Nc2nc(C)c3cc(CC)ccc3n2)cc1 | inconclusive: 8.91 µM [inhibitor, partial curve, poor fit]
Cc1cccc(NC(=S)NCc2ccc(F)cc2)c1 | inconclusive: 28.2 µM [inhibitor, single point]
Cc1cc(-c2ccccc2)nc(N/N=C/c2ccc([N+](=O)[O-])cc2)n1 | inconclusive: 28.2 µM [inhibitor, single point]
O=C1C(Cl)=C(NCc2cccnc2)C(=O)c2ccccc21 | inconclusive: 10 µM [inhibitor, partial curve, poor fit]
Cc1nn(-c2ccccc2)c(Cl)c1C(=O)N1CCN(c2ncnc3c2cnn3-c2ccccc2)CC1 | inconclusive: 12.6 µM [inhibitor, single point]
CN(C)c1ccc(NC(=O)c2ccc(Cn3cc([N+](=O)[O-])cn3)cc2)cc1 | inconclusive: 5.01 µM [inhibitor, partial curve]
O=C(NC(=S)Nc1cccc(C(F)(F)F)c1)c1ccc2nonc2c1 | inconclusive: 11.2 µM [inhibitor, partial curve, poor fit]
CC1=NN(C(=O)c2ccoc2C)C(O)(C(F)(F)F)C1 (stereo unspecified) | inconclusive: 28.2 µM [inhibitor, single point]
C=CCOC(=O)C1=C(C)NC(SC)=C(C#N)C1c1cccs1 (stereo unspecified) | inconclusive: 1.78 µM [inhibitor, full curve, poor fit]
CCn1c(=O)cc(OCC(=O)N2CCN(c3cccc(C(F)(F)F)c3)CC2)c2ccccc21 | inconclusive: 14.1 µM [inhibitor, single point]
CC(C)C1C(=O)N(Cc2cn(CCC3OCCO3)nn2)CCS(=O)(=O)N1Cc1ccc(-c2ccc(Cl)cc2)cc1 (stereo unspecified) | inconclusive: 11.2 µM [inhibitor, single point]
CN(C)CCCN(C(=O)/C=C/c1cccs1)c1nc2c(F)cccc2s1 | inconclusive: 14.1 µM [inhibitor, single point]
Fc1ccccc1OCCn1c(=S)[nH]c2ccccc21 | inconclusive: 28.2 µM [inhibitor, single point]
c1ccc(Cn2c(CNc3nc4ccccc4n3CCN3CCCCC3)nc3ccccc32)cc1 | inconclusive: 10 µM [inhibitor, single point]
O=C(NC1=C(Nc2ccc(Cl)cc2)C(=O)c2ccccc2C1=O)c1ccccc1 | inconclusive: 10 µM [inhibitor, partial curve, poor fit]
Cc1ccc(NC(=S)NC(=O)C2CC2)cc1Cl | inconclusive: 8.91 µM [inhibitor, partial curve, poor fit]
